This sample is rich in variants without activity.
B1: glmS ribozyme (parent)
chain: AUAAAAGCGCCAGAACUACAGAAAUGUAGUUGACGAGGAGGAGGUUUAUCGAAUUUUCGGCGGAUGCCUCCAAA

Experiments:
Conditions in all cases: with glucosamine-6-phosphate
[1] = variants of: B1; assay: self-cleavage kobs at 160 uM GlcN6P; higher = faster cleavage; RNA array
In short: (§1)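 Barcoded ribozyme variants were transcribed in situ on sequenced MiSeq chips by E. coli RNA polymerase. At 37 °C, a hybridised Cy3 probe tracked them while glucosamine-6-phosphate (40 μM to 10 mM) in HEPES/KCl/Mg(OAc)2 buffer flowed in and tiles were imaged over ~14 h. Per-tile medians of signals normalised to baseline and to non-cleaving reference variants were fit to one- or two-exponential decays, giving kobs. kcat and KM came from weighted Michaelis–Menten fits across concentrations.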

[2] = variants of: B1; assay: self-cleavage kobs at 2500 uM GlcN6P; higher = faster cleavage; RNA array
In short: as §1

[3] = variants of: B1; assay: self-cleavage kobs at 640 uM GlcN6P; higher = faster cleavage; RNA array
In short: as §1

[4] = variants of: B1; assay: self-cleavage kobs at 10000 uM GlcN6P; higher = faster cleavage; RNA array
In short: as §1

U31G A33C G37C
self-cleavage kobs at 160 uM GlcN6P [1]: < 1e-05 s⁻¹

C16G A33C C58G G66A
self-cleavage kobs at 160 uM GlcN6P [1]: < 1e-05 s⁻¹
self-cleavage kobs at 2500 uM GlcN6P [2]: < 1e-05 s⁻¹

A6U U46C
self-cleavage kobs at 160 uM GlcN6P [1]: < 1e-05 s⁻¹

C8A G13U A33G A36C
self-cleavage kobs at 160 uM GlcN6P [1]: < 1e-05 s⁻¹

C10G C34A C58A
self-cleavage kobs at 160 uM GlcN6P [1]: < 1e-05 s⁻¹

G13C A39C A53C
self-cleavage kobs at 160 uM GlcN6P [1]: < 1e-05 s⁻¹

A15U A52U C58A C70U
self-cleavage kobs at 160 uM GlcN6P [1]: < 1e-05 s⁻¹

A64G C68G C70A
self-cleavage kobs at 640 uM GlcN6P [3]: < 1e-05 s⁻¹
self-cleavage kobs at 160 uM GlcN6P [1]: < 1e-05 s⁻¹

C8A C67A
self-cleavage kobs at 160 uM GlcN6P [1]: < 1e-05 s⁻¹
self-cleavage kobs at 2500 uM GlcN6P [2]: < 1e-05 s⁻¹

G29U G51C A53G G63A U65G
self-cleavage kobs at 160 uM GlcN6P [1]: < 1e-05 s⁻¹

G13A C50U
self-cleavage kobs at 160 uM GlcN6P [1]: < 1e-05 s⁻¹
self-cleavage kobs at 10000 uM GlcN6P [4]: < 1e-05 s⁻¹

A6U C8U A14U A36G
self-cleavage kobs at 160 uM GlcN6P [1]: < 1e-05 s⁻¹

U30C G41C U49G G51U C58A
self-cleavage kobs at 160 uM GlcN6P [1]: < 1e-05 s⁻¹

A6G C16A C70G
self-cleavage kobs at 160 uM GlcN6P [1]: < 1e-05 s⁻¹

G62U G63C
self-cleavage kobs at 640 uM GlcN6P [3]: < 1e-05 s⁻¹

U30C G35U G40U A42G U47C
self-cleavage kobs at 160 uM GlcN6P [1]: < 1e-05 s⁻¹

C10U A12C U31G A42G
self-cleavage kobs at 160 uM GlcN6P [1]: < 1e-05 s⁻¹

G9C G37A G51A
self-cleavage kobs at 160 uM GlcN6P [1]: < 1e-05 s⁻¹
self-cleavage kobs at 2500 uM GlcN6P [2]: < 1e-05 s⁻¹

G13C G38U G66U
self-cleavage kobs at 160 uM GlcN6P [1]: < 1e-05 s⁻¹

A14U C61G
self-cleavage kobs at 160 uM GlcN6P [1]: < 1e-05 s⁻¹

A12G G37A
self-cleavage kobs at 160 uM GlcN6P [1]: < 1e-05 s⁻¹

A6U U47C C68U
self-cleavage kobs at 160 uM GlcN6P [1]: < 1e-05 s⁻¹

A6G C16A
self-cleavage kobs at 160 uM GlcN6P [1]: < 1e-05 s⁻¹

A12U G51A U55C
self-cleavage kobs at 160 uM GlcN6P [1]: < 1e-05 s⁻¹

G7A U30A U45A C70A
self-cleavage kobs at 160 uM GlcN6P [1]: < 1e-05 s⁻¹
self-cleavage kobs at 2500 uM GlcN6P [2]: < 1e-05 s⁻¹

C8U G41U C58U C68A C70G
self-cleavage kobs at 160 uM GlcN6P [1]: < 1e-05 s⁻¹

U31A C50A G51U A53G
self-cleavage kobs at 160 uM GlcN6P [1]: < 1e-05 s⁻¹

C16G A39U U54C G62A G63U C70A
self-cleavage kobs at 160 uM GlcN6P [1]: < 1e-05 s⁻¹
self-cleavage kobs at 2500 uM GlcN6P [2]: < 1e-05 s⁻¹

A6G G32C A48U A64G
self-cleavage kobs at 160 uM GlcN6P [1]: < 1e-05 s⁻¹
self-cleavage kobs at 2500 uM GlcN6P [2]: < 1e-05 s⁻¹

A6G G13A A39U A42C
self-cleavage kobs at 160 uM GlcN6P [1]: < 1e-05 s⁻¹

A33G C50A G62U G66U
self-cleavage kobs at 160 uM GlcN6P [1]: < 1e-05 s⁻¹

C10U G38A U46A
self-cleavage kobs at 160 uM GlcN6P [1]: < 1e-05 s⁻¹

G7C A15U C34A A36G
self-cleavage kobs at 160 uM GlcN6P [1]: < 1e-05 s⁻¹

G13A C16A A36U G40A C68G
self-cleavage kobs at 160 uM GlcN6P [1]: < 1e-05 s⁻¹
self-cleavage kobs at 2500 uM GlcN6P [2]: < 1e-05 s⁻¹

C11A C34G G66A
self-cleavage kobs at 160 uM GlcN6P [1]: < 1e-05 s⁻¹

C8G G38A A52G
self-cleavage kobs at 160 uM GlcN6P [1]: < 1e-05 s⁻¹
self-cleavage kobs at 2500 uM GlcN6P [2]: < 1e-05 s⁻¹

U31C U57C
self-cleavage kobs at 160 uM GlcN6P [1]: < 1e-05 s⁻¹

C19A G35A A48U U65A
self-cleavage kobs at 160 uM GlcN6P [1]: < 1e-05 s⁻¹

C8U G32C G38U A53C C61U C70U
self-cleavage kobs at 160 uM GlcN6P [1]: < 1e-05 s⁻¹
self-cleavage kobs at 2500 uM GlcN6P [2]: < 1e-05 s⁻¹

C10G U31C U49A G60C
self-cleavage kobs at 160 uM GlcN6P [1]: < 1e-05 s⁻¹
